Results from PubChem BioAssay (NCI).
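Dose response: 5 concentrations. Exposure: 48 h. Format: 96-well plates. Endpoint: linear interpolation; highest concentration if not reached. GI50 is the concentration that inhibits growth by half. TGI: total growth inhibition.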

Each compound was assayed on NCI-H322M lung (assay: NCI tumour cell line growth inhibition, 48 h).
`COc1ccc(/C=C/C(=O)c2ccc(NC(=O)CSc3nnc(-c4cc(OC)c(OC)c(OC)c4)o3)cc2)cc1` showed a GI50 of 1.59 µM and a TGI of 2.98 µM. `CC(C)[C@H](NC(=O)[C@@H](O)[C@H](N)Cc1ccccc1)C(=O)N[C@@H](Cc1ccccc1)C(=O)O` was tested, and the TGI was greater than 100 µM. `CN(C)CC1CN(C(=O)Nc2ccccc2)C(=N)O1` (configuration not stated) showed a TGI greater than 100 µM. `O=C1c2ccc3ccccc3c2CCC1N1CCCCC1` (configuration not stated) gave a TGI of 29.1 µM. In the case of `O=C(O)c1cn(C2CC2)c2cc(N3CCN(C(=O)Nc4nc(-c5ccc(Cl)cc5)cs4)CC3)c(F)cc2c1=O`, the GI50 is reported as 1.38 µM and the TGI is reported as greater than 100 µM. In the case of `Cc1ccc2cccc(OC(=O)c3cc4c(cc3Cl)Sc3nccn3S4(=O)=O)c2n1`, the TGI is reported as 27.4 µM. `O=C(Nc1cccc(-n2cc(-c3ccncc3)c(-c3ccc(O)c(Cl)c3)n2)c1)Nc1ccc(Cl)c(C(F)(F)F)c1` gave a GI50 of 2.73 µM and a TGI of 12.2 µM. With `O=C(Nc1cc(Cl)cc(Cl)c1)c1ccc(NC2=C(Cl)C(=O)N(Cc3ccccc3)C2=O)cc1` the GI50 was 16.5 µM and the TGI was 41.1 µM. `COc1ccc2c(c1)c(=O)oc1cc(OC/C(=N\O)c3ccc(F)cc3)ccc12` showed a GI50 of 21 µM and a TGI of 54.8 µM. Compound `C#Cc1ccc(-n2c(/C=C/c3ccc4ccccc4n3)nc3ncccc3c2=O)cc1` has a GI50 of 0.87 µM and a TGI of 2.73 µM. Work on `NC(CCCNCc1ccccc1O)C(=O)O` (configuration not stated) yielded a TGI greater than 100 µM.
